About 14,000 (4.5%) of roughly 310,000 compounds showed an effect of 50% or more. Effects have a minus sign here. This is one part of the list.
molecular target: human ether-à-go-go-related gene (hERG) potassium channel (human, UniProt Q12809); assay: primary screen, population patch clamp on CHO cells stably expressing hERG
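Note: peak tail current of the secondary pulse compared with the same well before compound.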

Sequence of human ether-à-go-go-related gene (hERG) potassium channel (Q12809 whole entry, looked up): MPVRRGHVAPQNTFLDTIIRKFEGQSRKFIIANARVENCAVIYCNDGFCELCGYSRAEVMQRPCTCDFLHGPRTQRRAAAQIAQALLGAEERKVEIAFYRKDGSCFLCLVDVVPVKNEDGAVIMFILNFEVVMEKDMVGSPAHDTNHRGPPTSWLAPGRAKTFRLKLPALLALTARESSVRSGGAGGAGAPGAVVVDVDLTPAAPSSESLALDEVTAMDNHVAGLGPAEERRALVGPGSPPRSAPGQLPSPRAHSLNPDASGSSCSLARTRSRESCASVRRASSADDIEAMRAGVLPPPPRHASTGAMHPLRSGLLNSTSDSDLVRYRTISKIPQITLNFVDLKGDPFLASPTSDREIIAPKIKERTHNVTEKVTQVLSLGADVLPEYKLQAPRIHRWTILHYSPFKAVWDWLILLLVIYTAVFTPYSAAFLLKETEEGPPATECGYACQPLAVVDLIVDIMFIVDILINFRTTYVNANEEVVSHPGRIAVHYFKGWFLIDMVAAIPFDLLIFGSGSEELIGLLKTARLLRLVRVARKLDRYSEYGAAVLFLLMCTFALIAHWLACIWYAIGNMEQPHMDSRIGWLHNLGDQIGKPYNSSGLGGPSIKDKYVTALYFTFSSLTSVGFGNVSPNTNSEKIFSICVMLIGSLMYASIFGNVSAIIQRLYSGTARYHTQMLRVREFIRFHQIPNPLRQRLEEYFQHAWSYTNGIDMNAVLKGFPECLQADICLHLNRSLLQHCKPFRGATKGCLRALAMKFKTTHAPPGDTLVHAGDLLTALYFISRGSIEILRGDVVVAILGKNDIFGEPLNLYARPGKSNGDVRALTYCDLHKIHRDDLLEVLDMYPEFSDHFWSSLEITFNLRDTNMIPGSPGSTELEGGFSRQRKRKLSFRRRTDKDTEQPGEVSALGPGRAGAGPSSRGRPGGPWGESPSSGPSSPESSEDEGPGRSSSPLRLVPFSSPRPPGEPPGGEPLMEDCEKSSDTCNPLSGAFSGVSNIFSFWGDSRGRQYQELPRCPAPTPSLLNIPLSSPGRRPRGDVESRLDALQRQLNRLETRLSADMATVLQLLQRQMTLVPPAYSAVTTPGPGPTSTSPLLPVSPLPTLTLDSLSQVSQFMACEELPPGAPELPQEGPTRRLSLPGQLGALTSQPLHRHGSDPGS

SMILES	hERG current change (%, negative = inhibition) at 10uM
COc1cccc(N2CCN(C(=O)c3ccc(CS(=O)c4ccccc4Cl)o3)CC2)c1 (stereo not shown)	-30.8%
Cc1cccc(N(CC(O)CN(C)C)S(=O)(=O)c2ccccc2)c1.Cl (stereo not shown)	-63%
Cc1ccc(NC(=O)c2cc(-c3cccs3)nc3ccccc23)nc1	-9.72%
COc1cccc(S(=O)(=O)c2nc(C)c3c(n2)CCC3)c1	-17.3%
CCOC(=O)N1CCc2c(sc(NC(=O)CN(CC)CC)c2C#N)C1	-9.82%
COc1ccccc1CNC(=O)c1ccc(Br)o1	3.48%
Cc1cc(O)cc(=O)n1CCc1ccccc1	15.7%
Cn1cc(C(=O)C(=O)N2CCOCC2)c2ccccc21	4.36%
CCc1ccccc1Nc1nc(N)nc(CSc2nnc3ccccn23)n1	18.7%
CN1C(C(=O)Nc2ccc(OC(F)(F)F)cc2)=CC(c2ccc3c(c2)OCO3)=NS1(=O)=O	15.2%
O=C(O)CCC(=O)CCC(=O)c1ccc(Cl)cc1	7.33%
COCc1ccc(C(=O)NC2CC(C)(C)Cc3c2cnn3-c2ccc(C)cc2)o1 (stereo not shown)	-39.3%
COC(=O)C1CN(C(=O)COc2ccc(C)c(C)c2)c2ccccc2O1 (stereo not shown)	-27.9%
O=C(c1cc(-c2ccco2)on1)N1CCc2ccccc2C1	-3.8%
CCN(CC)S(=O)(=O)c1ccc(N2CCCC2)c(NC(=O)CC(C)(C)C)c1	-2.34%
CC1CCc2cccc3c2N1c1cc(C#N)c(C#N)cc1O3 (stereo not shown)	5.08%
O=C(Nc1ccc(S(=O)(=O)Nc2ccccn2)cc1)C(F)(F)F	-1.48%
CCc1nc2ccc(C(=O)Nc3ccc(NC(C)=O)cc3)cc2nc1CC	14.2%
S=C(Nc1cccc(Cl)c1)Nc1ccc2c(c1)OCCO2	15.7%
COCCNC(=O)C1CCCN(S(=O)(=O)c2c(C)noc2/C=C/c2cccs2)C1 (stereo not shown)	-20.7%
CC(=O)c1ccc(OC(=O)c2cc3ccccc3oc2=O)cc1	12.8%
CC(C)C(=O)Nc1nnc(SCC(=O)NC2CC2)s1	12.8%

SMILES	hERG current change (%, negative = inhibition) at 10uM
O=S(=O)(c1cccs1)N1CN(Cc2ccccc2)c2nc3ccccc3nc21	-25.8%
CCN(CC)C(=O)Cn1cc(S(=O)(=O)CC(=O)Nc2cc(C)on2)c2ccccc21	-5.7%
CN1/C(=C/C(=O)c2cccs2)Sc2ccccc21	10.2%
O=C(COC(=O)Cc1cccs1)Nc1ccccc1F	-4.79%
Cc1nc([N+](=O)[O-])cn1Cc1cccc2ccccc12	10.2%
Cc1ccn2cc(-c3cccc([N+](=O)[O-])c3)nc2c1	2.66%
Cc1ccc(C(=O)NCCNc2ccc([N+](=O)[O-])cc2C(F)(F)F)cc1	-3.5%
O=c1c2ccccc2cnn1CCOc1cccc(Br)c1	20.5%
Cc1cc([N+](=O)[O-])ccc1NCc1cccc([N+](=O)[O-])c1	-48.1%
COc1cc(C(=O)NCC(=O)N/N=C(C)\C=C\c2ccccc2)cc(OC)c1OC	10.5%
CN(C)S(=O)(=O)c1cccc(NC(=O)c2cc3c(=O)n4ccccc4nc3s2)c1	11.4%
COc1cc2c(cc1Cl)/C(=C\CCN(C)C)c1ccccc1S2.O=S(=O)(O)O	-35.4%
O=C(O)c1ccc(O)c(N2C(=O)Nc3ccccc3N2O)c1	14.6%
CC1CCCN(C(=O)CNS(=O)(=O)c2cccs2)C1 (stereo not shown)	-2.13%
CC1CN(C(=O)CCNC(=O)c2ccc(Cl)cc2)CC(C)O1 (stereo not shown)	7.6%
O=S1(=O)N=C(Nc2nncs2)c2ccccc21	18.6%
CCN(CC(=O)O)S(=O)(=O)c1cc(Cl)ccc1Cl	10.1%
O=C(CCN1CCN(CCO)CC1)Nc1ccccc1.O=C(O)C(=O)O	13.1%
Cc1nnc2sc(-c3cccc4ccccc34)nn12	-19.9%
O=C(NCC(O)CN1CCOCC1)c1ccc([N+](=O)[O-])cc1 (stereo not shown)	-4.31%
Cc1ccc(-c2cc(=O)[nH]c3ccccc23)cc1	-9.82%
FC(F)(F)c1cccc(Cn2nnnc2-c2cccc(C(F)(F)F)c2)c1	-18%

SMILES	hERG current change (%, negative = inhibition) at 10uM
CC(C)CNC(=O)c1ccccc1SCC(=O)NC12CC3CC(CC(C3)C1)C2	-5.62%
O=C(NC(Cc1ccccc1)C(=O)O)/C(=C/c1ccccc1)NC(=O)c1cccc(Br)c1 (stereo not shown)	13.5%
CCN(C(=O)COC(=O)c1cc(-c2ccccc2)nc2c1c(C)nn2-c1ccc(C)cc1)C1CCS(=O)(=O)C1 (stereo not shown)	-0.38%
CSc1nc2ccc(NC(=O)c3ccc(F)c(F)c3)cc2s1	12.2%
O=C1c2cccnc2C(O)N1C1CCCCC1 (stereo not shown)	6.12%
CN(C)CCN(C)Cc1c2ccccc2c(CN(C)CCN(C)C)c2ccccc12	0.802%
COc1ccc(OCC(=O)NNC(=O)c2cccc(O)c2)cc1	14.2%
COC(=O)C(Cc1ccccc1)NC(=O)c1cccc(S(=O)(=O)N(C)C)c1 (stereo not shown)	2.5%
Cc1cc2nc(N3CCN(C(=O)c4ccco4)CC3)sc2cc1C	0.152%
CN(C(=O)CSc1ncnc2sccc12)c1c(N)n(Cc2ccccc2)c(=O)[nH]c1=O	-8.17%
CCN(CC)CCNC(=O)c1c(C)n(-c2ccccc2)c2cc(Br)c(OC)cc12	-51.5%
COc1ccc2nc(NC(=O)CSc3nc(SC)ns3)sc2c1	20.3%
O=C(CCN1C(=O)C2CC=C(Cl)CC2C1=O)NCc1ccccc1 (stereo not shown)	0.443%
CC1CN(c2ccccc2)NC1=O (stereo not shown)	8.42%
Cc1nn(-c2ccccc2)c2ncc(C(=O)c3cc(Cl)ccc3O)cc12	-8.66%
O=C(CSc1nccc(=O)[nH]1)Nc1cccc(S(=O)(=O)N2CCOCC2)c1	4.22%
Cc1cc(NC(=O)CSc2nnc(-c3cccnc3)n2C)no1	15.6%
Cc1cc(C)cc(N2C(=O)/C(=C\c3ccc(N4CCN(C)CC4)o3)C(=O)NC2=S)c1	-14.8%
COc1ccc(NC(=O)CN(C)C(=O)c2cccc(S(=O)(=O)Nc3ccc(F)cc3)c2)cc1	-22.1%
COc1cccc(-c2nc(CS(=O)(=O)CC(=O)NCCc3ccc(OC)cc3OC)c(C)o2)c1	-13%
Cc1cc(C(=O)NCc2ccc(S(N)(=O)=O)cc2)ccc1[N+](=O)[O-]	-8.65%
COc1cccc(C2C(C#N)=C(N)N(N(C)C)C3=C2C(=O)CC(C)(C)C3)c1 (stereo not shown)	-5.98%

SMILES	hERG current change (%, negative = inhibition) at 10uM
CCN(CC)C(=O)c1cccc(NC(=O)c2cc(C3CC3)nc3c2cnn3C(C)C)c1	-17.1%
Cc1cc(NC(=O)CSc2ccc3c(c2)OCCO3)no1	-8.22%
COc1ccc(NC(=O)CS(=O)(=O)c2cn(CC(=O)N3CCOCC3)c3ccccc23)cc1	10.5%
COCCCN1CN(S(=O)(=O)c2ccc(Cl)cc2)c2nc3ccccc3nc21	-32.7%
CN1CCN(C(=O)COc2ccc(-c3nc4ccccc4s3)cc2)CC1	-21.1%
COc1ccc(NC(=O)COC(=O)c2cc(C)oc2C)cc1OC	9.35%
COc1ccc(C(=O)c2c[nH]c(C(=O)NCc3cccs3)c2)cc1	0.543%
Cc1cc(N(CC(=O)O)S(C)(=O)=O)ccc1Br	15.9%
COc1cc2c(cc1OC)CN(CC(=O)Nc1cccc([N+](=O)[O-])c1)CC2	-31.6%
CC(=O)Nc1ccc(S(=O)(=O)NNC2=NS(=O)(=O)c3ccccc32)cc1	22%
COC(=O)Cc1c(C)c2ccc(OCC(C)=O)c(C)c2oc1=O	0.128%
Cc1nn(CCC#N)c2c1P(=S)(N1CCCC1)OC(c1ccc(F)cc1)=N2 (stereo not shown)	-7.21%
CCCOc1ccc(N2C(=O)CC(N3CCC(c4nc5ccccc5o4)CC3)C2=O)cc1 (stereo not shown)	3.27%
Cc1cc(C)c(C#N)c(N2CCN(C(=O)C3COc4ccccc4O3)CC2)n1 (stereo not shown)	-75.4%
O=C(OCc1ccc2c(c1)OCO2)c1ccc(S(=O)(=O)N2CCCCC2)cc1	-2.65%
Cc1ccc(NC(=O)N(Cc2cccs2)Cc2cc3cc4c(cc3[nH]c2=O)OCO4)cc1	5.97%
CCc1ccc(NC(=O)CC2C(=O)N(c3ccc(C)cc3)C(=O)N2CCc2ccncc2)cc1 (stereo not shown)	-55.8%
Nc1nonc1C(=O)NCCNc1ccc([N+](=O)[O-])cc1	-21.9%
Nc1ccc2nc(-c3ccccc3)[nH]c2c1	6.5%
CC1=NN(C(=O)COc2ccc(C)c(C)c2)C(O)(c2ccccc2)C1 (stereo not shown)	0.55%
Cc1cccc(NC(=O)CSc2nnc(CCCCCNC(=O)OC(C)(C)C)o2)c1C	-19.1%
Cn1c(=O)n(Cc2ccccc2F)c(=O)c2c1nc1n2CCN1Cc1ccco1	-5.95%
